PubChem BioAssay AID1030 (National Center for Advancing Translational Sciences (NCATS), 2008)
Screen size: about 220,000 compounds; about 16,000 (7.3%) were called active. The shares of active, inactive and inconclusive entries below differ from those in the screen. Calls follow the shape of the dose curve; as a rule, active = well fitted inhibition curve with a large enough effect (not every such curve was filed as active); inconclusive = small, poorly fitted or top-dose-only effect, or another doubt; inactive = no such curve, though single readings can be large or run the other way. Potencies of inconclusive entries are left out as doubtful fits.

target: Aldehyde dehydrogenase 1A1 (Homo sapiens) (UniProt P00352); test: qHTS Assay for Inhibitors of Aldehyde Dehydrogenase 1 (ALDH1A1); settings: Purified ALDH1A1, NADH fluorescence, propionaldehyde substrate; series mostly up to 75.3 µM; activity, negative = inhibition: at the top concentration;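 as to activity, negative = inhibition: plate controls were no enzyme wells and a reference inhibitor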
Sequence of UniProt P00352 (P00352 whole entry, looked up): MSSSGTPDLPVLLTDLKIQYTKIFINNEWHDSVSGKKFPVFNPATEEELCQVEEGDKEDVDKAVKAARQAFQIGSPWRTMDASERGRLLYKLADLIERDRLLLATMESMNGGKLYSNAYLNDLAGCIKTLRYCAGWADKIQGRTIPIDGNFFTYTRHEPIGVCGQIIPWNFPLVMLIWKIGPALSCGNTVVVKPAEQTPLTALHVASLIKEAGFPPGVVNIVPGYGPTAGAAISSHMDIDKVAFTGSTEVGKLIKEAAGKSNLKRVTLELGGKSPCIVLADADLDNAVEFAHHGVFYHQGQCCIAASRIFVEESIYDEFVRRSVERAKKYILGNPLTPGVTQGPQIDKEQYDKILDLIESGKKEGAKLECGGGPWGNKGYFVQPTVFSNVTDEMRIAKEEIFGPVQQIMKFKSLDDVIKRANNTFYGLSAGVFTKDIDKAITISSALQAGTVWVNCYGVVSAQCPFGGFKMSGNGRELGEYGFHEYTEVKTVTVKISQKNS
Potency is read from the fitted curve at half-maximal effect; tags tell the direction and shape of the fitted curve.

SMILES | Potency | activity, negative = inhibition
CSc1ccccc1-n1nnnc1SCc1ccccc1 | active: 7.08 µM | –
O=C(c1ccc(CN2CCOCC2)cc1)N1CCC(Cc2ccccc2)CC1 | – | inactive: -3.1%
COc1ccc([N+](=O)[O-])cc1NC(=O)C(C)N(C)Cc1cccc(OC)c1OC (stereo unspecified) | inconclusive [inhibitor, single point] | –
COc1ccc(C(=O)NC(=O)Nc2cc(C)ccn2)cc1 | active: 12.6 µM | –
CCn1c(=O)c([N+](=O)[O-])c(NCC(O)c2ccccc2)c2ccccc21 (stereo unspecified) | inconclusive [inhibitor, single point] | –
CCc1nnc(NC(=O)CSc2nc3c(c(=O)n2-c2ccccc2OC)SCC3)s1 | active: 22.4 µM | –
CC(=O)Nc1ccc(-c2csc(NC(=O)Nc3ccccc3)n2)cc1 | inconclusive [inhibitor, single point] | –
CCCC(=O)Nc1ccc(C(=O)NN=C(C2CC2)C2CC2)cc1 | inconclusive [inhibitor, single point] | –
O=C1c2cccnc2C(=O)N1Cc1ccco1 | inconclusive [inhibitor, single point] | –
COc1ccc(-c2nc3cnc(N4CCN(C)CC4)nc3n(-c3ccc(OC)cc3)c2=O)cc1 | inconclusive [inhibitor, partial curve] | –
O=C(c1cccs1)N(C(=O)c1cccs1)c1ccc(Br)cn1 | inconclusive [inhibitor, partial curve] | –
Cc1ccc(SCCC(=O)OCn2nnc3ccccc3c2=O)cc1 | active: 15 µM | –
O=C(NCC1CCCO1)C1CCCN1C(=O)Nc1ccc(Cl)cc1 (stereo unspecified) | – | inactive: 5.38%
COC(=O)c1nn(-c2ccc3c(c2)CCN3C(C)=O)cc1O | inconclusive [inhibitor, partial curve] | –
COC(=O)c1c(CSc2ccc(C)c(C)c2)noc1C(=O)NCc1ccc(OC)cc1 | inconclusive [inhibitor, full curve] | –
Cc1cccc(NC(=O)CSc2nc(-c3ccccc3)c(C#N)c(=O)[nH]2)c1C | – | inactive: -9.19%
CC1CC(C)CN(CC(=O)c2cccs2)C1 (stereo unspecified) | inconclusive [inhibitor, partial curve] | –
Cc1ccc(Cl)cc1NC(=O)COC(=O)C12CC3CC(CC(C3)C1)C2 | inactive | –
Cc1cc(C)cc(N2C(=O)CC(Sc3ncn[nH]3)C2=O)c1 (stereo unspecified) | active: 2 µM | –
CCOn1c(=O)c(=O)n(OCc2ccccc2)c2ccccc21 | inconclusive [inhibitor, single point] | –
O=c1c(-c2ccccc2)n[nH]c2ccccc12 | inconclusive [inhibitor, single point] | –
